Read counts are not given, so values of variants with three or more changes are uncertain.
B1: LINE1-mini (parent)
chain: GGCAGAGCUCAACACAGCGUGGCAAAGUGGCUGUGGCUAGACUGCC

Variants of: B1
Assay: self-cleavage, relative activity (ratio to wild type); higher = more cleavage; in vitro, sequencing; the parent is a self-cleaving ribozyme

Variant | self-cleavage
GGCAUAGCUGAACACAGCGUGGCAAAGGGCCUGUGGCUAGAGUGCC [G5U C10G U28G G30C C42G] | 0.01
GGCAUAGCUCAACACAGGGUUGCAAAGCGGCUGUGUCUAGACUGCC [G5U C18G G21U U28C G36U] | 0.05
GGCAUACCUCAACAUAGCGUGGCAAAGUGGCUGUGGCUAGACUUCC [G5U G7C C15U G44U] | 0.08
GGCAUAGCUCAACACAACGUGGCAAAGUCGCUGAGGCUAAACUGCC [G5U G17A G29C U34A G40A] | 0.02
GGCAUAGCUCAAGACAGCGUGGCAAAGUGGCUGUGGUUAGACUGUC [G5U C13G C37U C45U] | 0.12
GGCAUAGCUGAACACAGCGUGUCAAAGUGGCUGUGGCUAGACUGCC [G5U C10G G22U] | 0.02
GGCAUAUCUCAACAAAGCGUGGCAAAGUGGCUGUGGCUAGACUGCC [G5U G7U C15A] | 0.1
GGCAUAGCUCAACACAGCGUGGCAAAGUGGCUGUGGGUUGACUGCC [G5U C37G A39U] | 0.04
GGCAUAUCUCAAGACAGCGUGGCAAAGUGGCUGUGGCUAGACUGCC [G5U G7U C13G] | 0.25
GGCAUAGCUCAACACAGUGUGGCAAAGUGGCUGAGGCUAGACGUCC [G5U C18U U34A U43G G44U] | 0
GGCAUAGCUAAAAGCAGCGUGGCAAAGUGGCUGUGGCUAGACUGCC [G5U C10A C13A A14G] | 0.03
GGCAUAGCUAAACACAGCGUGUCAAAGUGGCUGUGGUUAGACUGCC [G5U C10A G22U C37U] | 0.01
GGCAUAGCUCAAAACAGCGUGGCAAAGUGGCUGUGGCUAGACUGGC [G5U C13A C45G] | 0.03
GGCAUAGCUCAACACAUCGUGGCAAUGUGGCUGUGGCUAGACUGCC [G5U G17U A26U] | 0.01
GGCAUAGCUCAACACAGCGUGGCAAAGUGGUUGUUGCUAGGCUGCC [G5U C31U G35U A41G] | 0.02
GGCAUAUCUCAACACAGCGUGACAAAGUGGCUGUUGCUAGACUGCC [G5U G7U G22A G35U] | 0.27
GGCAUAGCUCAACACAGCGUAGCAAAGUGGCUGUGGCUAGAUUGCC [G5U G21A C42U] | 0.13
GGCAUAGCUCAACACAGAGUGGCAAAGUUGCUGUGGCUAGACUGCC [G5U C18A G29U] | 0.09
GGCAUAGCUAAACACAGCGUGGCAAAGUGGCUUUUGCGAGACUGCC [G5U C10A G33U G35U U38G] | 0.04

Variant | self-cleavage
GGCAUAGCUCAAGACAGCGUGGCAAAGUGGAUGUGGCUAGACUGCC [G5U C13G C31A] | 0.04
GGCAUAGCUCAAGACAGCGUGGCAAAGUGGUUGUGGCUAGACUGCC [G5U C13G C31U] | 0.04
GGCAUAUCGCAACACAGCGUGGCAAAGUGGCUGUGGCUAGAUUGCC [G5U G7U U9G C42U] | 0.03
GGCAUAGCUGAACACAGCGUGGCAAAGUAGCUGUGGCUAGACUGCC [G5U C10G G29A] | 0.02
GGCAUAGCUCAAAACAGCGUGGCAAAGUGGUUGUGGCUAAACUGCC [G5U C13A C31U G40A] | 0.11
GGCAUAGCUCAACAAAGCGUGGCAAAGUGGCUGUGGCUAAACUGCC [G5U C15A G40A] | 0.02
GGCAUAGCUCAAAACACCGUGGCAAAGUGGCUGUGGCUAGACUGCC [G5U C13A G17C] | 0.05
GGCAUAGCUAAACAUAGCGUGGCAAGGUGGCUGUGACUAGACUGCC [G5U C10A C15U A26G G36A] | 0.01
GGCAUAACACAACACAGCGUGGCAAAGUGGCUGUGGCUAGACUGCC [G5U G7A U9A] | 0.2
GGCAUAGCUCAACACAGCAUGGCAAAGUGGCUGUGGCAAGAAUGCC [G5U G19A U38A C42A] | 0.23
GGCAUAGCUGAACACAGCGUGGCAAAGUGGCGGUCGCUAGACUGCC [G5U C10G U32G G35C] | 0
GGCAUAGCUCAACAGAGCGUGGCAAAGUGGCUGUGGCAAGACUGCC [G5U C15G U38A] | 0.04
GGCAUAGCUCAACACAGCGUUAAUAAGUGGCCGUGGCUAGACUGCC [G5U G21U G22A C23A A24U U32C] | 0.05
GGCAUAGCUCAACAGAGCGACGCAAAGUGGCUGUGGCUCGACUGCC [G5U C15G U20A G21C A39C] | 0.01
GGCAUAGCUCAACACAGCGUGGCAAAGUGGUUGUGGCUAGACUGGC [G5U C31U C45G] | 0.06
GGCAUAGCUCAAUACAGUGAGGCAAAGUGGCUGUGGAUAGACUGCC [G5U C13U C18U U20A C37A] | 0.04
GGCAUAGUUCAACACAGCGUGGCAAAUUGGCUGGGGCCAGACUGCC [G5U C8U G27U U34G U38C] | 0.03
GGCAUAGCUCAACACACCGUGGAAAAGUGGCUGUGGCUAGACUGCC [G5U G17C C23A] | 0.06
GGCAUAGCUUAACACAGCGUUGCAAAAUGGCUGUGGCUGGACUGCC [G5U C10U G21U G27A A39G] | 0.02

Variant | self-cleavage
GGCAUAGCUCAACACAGCGUGGCAAAGUGGCUGUGGUAAGACUACC [G5U C37U U38A G44A] | 0.06
GGCAUACCGUAACCCAGCGUGGCAGAGUGGCUGUGGCUAGACUGCC [G5U G7C U9G C10U A14C A25G] | 0.03
GGCAUAGUUCAACACAACGUGGCAAACUGGCUGUGGCUAGACUCCC [G5U C8U G17A G27C G44C] | 0.03
GGCAUAGCUCAACACAGUGUGGCAAAGUGGCUGUGUCUACACUGCC [G5U C18U G36U G40C] | 0.02
GGCAUAACUCAACACAGCGUGUCAAAGUGGCUGUGGCUAGACUGCC [G5U G7A G22U] | 0.27
GGCAUAGCUUAUCACCGGGUGGCAAAGUCGCUGUGGCUAGACUGCC [G5U C10U A12U A16C C18G G29C] | 0.08
GGCAUACCUUAACACAGCGUGGCAAAGUGGGAGUGGCUAGAAUGCC [G5U G7C C10U C31G U32A C42A] | 0.01
GGCAUAGCUCAAUACAGCGUUGCAAAGUGACUGUGGCUAGACUGCC [G5U C13U G21U G30A] | 0.08
GGCAUAACUGAACGCAGCGUGGCAUAGUGGCUGUGGCUAGAUUGCC [G5U G7A C10G A14G A25U C42U] | 0.03
GGCAUAGCUCAACACAGCGUGGAAAAGCGGCUGUUGCAAUACUGCC [G5U C23A U28C G35U U38A G40U] | 0.01
GGCAUAGCUCAACACAGAGUGGCCAAGUGGCUGUGGCUAGACUGCC [G5U C18A A24C] | 0.01
GGCAUAGCUCAACACAGCGUAGCAAAGUGGCUGUUGAUAGACUGCC [G5U G21A G35U C37A] | 0.04
GGCAUAACUCAACGCAGCGUGGCAAAGUGGCUGUCGCUAGACUGCC [G5U G7A A14G G35C] | 0.38
GGCAUAGCUCAACACAGCGUAGCAAAGUGGCUGUGGCUGGACUGCC [G5U G21A A39G] | 0.12
GGCAUAGCUCAACAAAGCGUGGCAAAGUGGCAGUGGUUAUACUGCC [G5U C15A U32A C37U G40U] | 0.05
GGCAUAGCUCAACACAUCGUGGCCAAGUGGCUGUGGCUAGACUGCC [G5U G17U A24C] | 0.08
GGCAUAGCUCAACACAGCGUGGGAAAGUGGCUGUGGCUAGUCUGCC [G5U C23G A41U] | 0.09
GGCAUAGCUCAACACACCGUGGAACAGUGGCUGUGGCUAGGCUGCC [G5U G17C C23A A25C A41G] | 0.01
